# Measurements reported in the supplement of paper PMC11383711.
# Substitutions are numbered along the chain they refer to. The list shows a part of the results. Binding of human antibodies (heavy:light variable regions, tested as scFv in one mRNA-display pool) to influenza hemagglutinin, with or without the stem antibody CR9114 bound first. Score = (mean enrichment − median) / interquartile range of that screen; higher = more enriched, 0 = typical non-binder. Active = above the paper's cut-off per screen: stems 28; unblocked H1 Solomon Islands 5, H1 Michigan 3, H3 5, H5 19, H7 2.85, both B 5; blocked 9, 7, H5 10, H7 10, B Phuket 10, B Lee 11.5. Scores are scaled within each screen and are no affinities; replicates correlate at about 0.6 to 0.9, and antibodies rare in the pool are noisier.
# B1: 051-09-4D03 (protein)
# chain 1: QVQLVQSGPEVRKPGASVKVSCKASGYTFTNHDINWVRQAPGQGLEWMGWVNPSNNNVGYAQKFRGRVTMTKDSSTSTVHMELYSLTSEDTAVYYCARGLGGGISVFGVLVRGRWFDPWGQGTLVTVSS
# chain 2: DIQMTQSPSTLSASVGDRVTITCRASQSISTDLAWYQQKPGRAPKVLIFEASRLQSGVPSRFSGSGSGTEFTLTISSLQPGDVATYYCQQYNIYSWTFGQGTKVEIK
# B2: antibody 2C03 (protein)
# chain 1: VQLVESGGGVVQPGRSLRLSCAASGFTFSTYAMHWVRQAPGKGLEWVAIISYDGTYKYYADSVKGRFTISRDNLKNTLYLQMDSLRAEDTAVYYCGGECDGDCGGIDYWGQGALVTVSS
# chain 2: DIVMTQSPDSLAVSLGERATINCRSSHSLLYSSNNKNYLAWYQQKPGQPPKLLIYWASTRHSGVPDRFSGSGSGTDFTLTISSLQAEDVALYYCQQYYDTPFTFGPGTKVEIK
# B3: R95-1F03 (protein)
# chain 1: QVQLQESGPGLVKASGTLSLTCVVSGGSIRSENWWSWVRQPPGKGLEWIGEVYHSGNANYNPSLKSRVSISVDESKTQFSLRLTSVTAADTAVYYCVKDGARDSSGYYNYRWGWYDPWGQGILVVVSS
# chain 2: DIQMTQSPSSLSASVGDRVTITCRASQSIGGYLNWYQQKPGKAPKLLIYAASTLQSGVPARFSGSGSGTDFTLTISSLQPEDFATYYCQQSYNLVSITFGQGTRLDIK
# B4: C1-2A02 (protein)
# chain 1: VQLVESGGGLVQPGGSLRLSCVASGFDFNQYSMNWVRQAPGKGLEWLSYISSSAATVFYADSVQGRLTISRDNGKNSLFLQMNSLRVEDTAVYYCVREAVIVDGMPFEYWGQGALVTVSS
# chain 2: EIVMTQSPGTLSVSPGESATLSCRASESVGSSLAWYQQKPGQAPRLLIFHTSTRATGVPARFSGSGSGTEFTLTISGMQSEDSGVYHCHQYKGWPPWTFGQGTKVEIK
# B5: antibody 2G04 (protein)
# chain 1: EVQLLESGGGVVQPGRSLRLSCAASGFIFSYSGIHWVRQAPGKGLEWVALISYDGRNQYYADSVKGRFTISRDNTKTTLQMNNLRAEDTAVYFCARDRHDFGDNYEIDYWGLGTTVTVSS
# chain 2: FMLTQPHSVSESPGKTVTISCTRSSGNIASYFVQWYQQRPGSAPTTVIFEDDQRPSGVPDRFSGSIDSSSNSASLTISGLRTEDEADYYCQSYDTINPHVIFGGGTKLTVL
# B6: R95-1B07 (protein)
# chain 1: QVQLQGSGPGLVKPSGTLSLTCGVSCASISSNHVSSGVPQPPGKGGEAIGELVHNGRTIYNPSLRSRLNISLDRSKILFSLKLTSVTAADTAVYYCAFFQRGYTSGSDYWGQGTLVTVSS
# chain 2: QAVVTQEPSFSVSPGGTVTLTCGLSSGSVSTNNYPSWYQQTPGQAPRTLIYSTNTRSSGVPDRFSGSILGTRAALTVTGAQAEDESDYYCMLYLGSGSWVFGGGTKLTVL
# B7: antibody 3G01 (protein)
# chain 1: VQLQESGPGLVRPSKTLSLTCTVSGDSIDSSTDYWAWIRQPPGKGLEWIGNIYYSGTTYYNPSLQSRVTISVDTSKNQFSLTLRSVTAADTALFYCARQEIVGIRVWGQGTLVTVSS
# chain 2: DIVMTQSPDSLAVSLGERATISCKSSQSVLYSANNKNYLAWYQQRPGQPPKLLIYWSSTRESGVPDRFSGSGSGTDFSLTISSLQAEDVAVYYCQQYYDTPYTFGQGTKVEIK
# B8: K77-1B01 (protein)
# chain 1: EVQLVESGGVVVQPGGSLNLSCAASGFTFDDYAMHWVRQTPGKGLEWVSLISWDGGHTYYADSVKGRFTISRDNSKNFLYLEGHSLRPEDTALYYCVRDPGAGNYYYYGMDVWGHGTTVTVSS
# chain 2: B7 chain 2 with S22N, S32R, A33S, N35K, R45K, S57A, S78T, D99T, Y102H, V110L
# B9: C1-2-2F03 (protein)
# chain 1: VQLQESGPGLVKPSETLSLTCSVFGDSISSHYWSWIRQPPGKGLEWIGYIYYSSRTDYNPSLKSRVTISVDTSKNQVSLSLRSVTAADTAVYYCARTMDTSGWQPYYYGMDVWGQGTTVTVSS
# chain 2: EIVLTQSPGTLSLSPGERATLSCRASHTVSSNNLAWYQQKPGQAPRLLIYGSSSRAYGIPDRFSGYGAGTDFTLTISRLEPEDFAVYYCQQYGSSPMYTFGQGTKVEIK
# B10: K77-1B07 (protein)
# chain 1: QVQLVQSGAEVKKPGASVKVSCKASDYSLTNYYLHWVRQPPGQGLEWMGIIHPNGITTTYAQKFLGRVTMTRDTSTSTVYMELTSLRSDDTAVYYCARRGVVITSEGYHYYGLDVWGQGTTVTVSS
# chain 2: EIVLTQSPGTLSLSPGERATLPCRASQSVSSSYLAWYQQKPGQAPRLLIYGASSRATGIPDRFSGSGSGTDFTLSISRLEPEDFAVYYCHHYGSTGTFGGGTKVEIK
# B11: 051-10-2B05 (protein)
# chain 1: EVQLVESGGGLVKPGGSLRVSCAASGFIFGTFGMNWVRQAPGKGLEWVSSISSASASIEYADAVKGRFTISRDNAEKSLYLQMNSLRADDTAVYYCARDGGVPRRYSLDVWGQGTTVTVSS
# chain 2: QSALTQPASVSGSPGQSITISCTGTSSDVGAYNLVSWYQQHPGKAPKLMIFDVTNRPSGVSNRFSGSKSGDTASLTISGLQAEDEADYFCSSYTNTRTLLFGGGTKLTVL
# B12: 014-10-1D01 (protein)
# chain 1: QVQLQESGPGLVKPSQTLSLICTVSGGSVSSGNHYWSWIRQPAGRGLEWIGRIFSDGSTYYHPSLKSRVTMSLDTSKNQVSLKLSSVTAADTAMYYCARDYSGYDYLAFDIWGQGSMVTVSS
# chain 2: QSVLTQPPSASGTPGQRVTISCSGDNFNIGRNTVNWYQQLPGTAPKLLIYTTNQRPSGVPDRFSGSQSGTSASLAISGLQSEDEADYYCAAWDDSLSGLWVFGGGTKLTVL
# Tests used:
# Assay in all cases: mRNA display binding score; higher = more enriched on the antigen
# [1] = target: Influenza A H1N1 A/Michigan/45/2015 hemagglutinin ectodomain
# Method: (§1)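 A pool of natively paired antibodies, displayed as scFv on mRNA, was selected once on antigen-coated beads and sequenced before and after; two replicates.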
# [2] = target: Influenza A H1N1 A/Solomon Islands/3/2006 hemagglutinin ectodomain
# Method: as §1
# [3] = target: Influenza A H3N2 A/Singapore/INFIMH-16-0019/2016 hemagglutinin ectodomain; settings: antigen blocked with: nothing
# Method: as §1
# [4] = target: Influenza A H5N1 A/Qinghai/1A/2005 hemagglutinin ectodomain
# Method: as §1
# [5] = target: Influenza A H7N9 A/Shanghai/2/2013 hemagglutinin ectodomain
# Method: as §1
# [6] = target: Influenza B/Lee/1940 hemagglutinin ectodomain
# Method: as §1
# [7] = target: Influenza B/Phuket/3073/2013 hemagglutinin ectodomain
# Method: as §1
# [8] = antigen blocked with: 2 µM CR9114 IgG
Binder,"mRNA display binding score [1, 8]",mRNA display binding score ([1]; antigen blocked with: nothing),"mRNA display binding score [2, 8]",mRNA display binding score ([2]; antigen blocked with: nothing),mRNA display binding score [3],"mRNA display binding score [4, 8]",mRNA display binding score ([4]; antigen blocked with: nothing),"mRNA display binding score [5, 8]",mRNA display binding score ([5]; antigen blocked with: nothing),"mRNA display binding score [6, 8]",mRNA display binding score ([6]; antigen blocked with: nothing),"mRNA display binding score [7, 8]",mRNA display binding score ([7]; antigen blocked with: nothing)
B1,inactive: -0.195,inactive: 0.498,inactive: 0.0293,inactive: 0.00837,inactive: -0.284,inactive: 0.527,inactive: 0.401,inactive: -0.931,inactive: 0.32,inactive: -0.977,inactive: -0.335,inactive: -0.603,inactive: -0.304
B2,inactive: -0.155,inactive: -0.027,inactive: -0.379,inactive: -0.214,inactive: -0.553,inactive: 0.419,inactive: -0.522,inactive: 0.114,inactive: -0.266,inactive: -0.107,inactive: 0.091,inactive: 0.0324,inactive: -0.162
B3,inactive: -0.199,inactive: -0.701,inactive: -0.621,inactive: -0.654,inactive: -0.553,inactive: -0.751,inactive: -0.502,inactive: -0.464,inactive: -0.558,inactive: -0.326,inactive: 1.21,inactive: -0.378,inactive: -0.0425
B4,inactive: -0.461,inactive: -0.504,inactive: -0.488,inactive: -0.172,inactive: -0.511,inactive: -0.577,inactive: -0.518,inactive: -0.37,inactive: -0.258,inactive: 1.84,inactive: -0.165,inactive: -0.325,inactive: 0.37
B5,inactive: 3,inactive: 0.348,inactive: 0.0111,inactive: 0.834,inactive: 2.29,inactive: 6.89,inactive: 19,inactive: 1.07,inactive: 0.257,inactive: 1.21,active: 69.7,active: 44.2,active: 56.6
B6,inactive: -0.515,inactive: -0.736,inactive: -0.462,inactive: -0.632,inactive: -0.362,inactive: -0.817,inactive: -0.613,inactive: -0.855,inactive: -0.774,inactive: -0.449,inactive: -0.463,inactive: -0.591,inactive: -0.462
B7,inactive: -0.462,inactive: -0.26,inactive: -0.702,inactive: -0.328,inactive: -0.0293,inactive: -0.798,inactive: -0.514,inactive: -0.628,inactive: -0.398,inactive: -0.614,inactive: -0.337,inactive: -0.48,inactive: -0.363
B8,inactive: -0.0579,inactive: 0.344,inactive: 0.452,inactive: -0.331,inactive: 0.114,inactive: 0.0293,inactive: 0.288,inactive: -0.352,inactive: 0.262,inactive: -0.0985,inactive: -0.0307,inactive: 0.0967,inactive: -0.0679
B9,inactive: 0.239,inactive: 0.685,inactive: 0.623,inactive: 0.089,inactive: 0.283,inactive: 1.17,inactive: -0.0649,inactive: 1.3,inactive: 0.546,inactive: 0.656,inactive: -0.1,inactive: -0.281,inactive: 0.0774
B10,inactive: -0.488,inactive: -0.694,inactive: -0.874,inactive: -0.286,inactive: -0.428,inactive: -0.606,inactive: -0.514,inactive: -0.803,inactive: -0.567,inactive: 1.28,inactive: 0.0341,inactive: 0.00249,inactive: 0.575
B11,inactive: 0.445,inactive: -0.834,active: 15.6,inactive: 4.75,inactive: -0.42,inactive: 1.02,inactive: -0.281,inactive: 0.279,inactive: -0.398,inactive: -0.555,inactive: 0.169,inactive: -0.294,inactive: 0.207
B12,inactive: -0.389,inactive: -0.349,inactive: -0.525,inactive: -0.154,inactive: -0.113,inactive: -0.528,inactive: -0.301,inactive: -0.802,inactive: -0.424,inactive: -0.78,inactive: -0.333,inactive: -0.455,inactive: -0.289
